Results on two molecules are retold here after patent US20120219565A1 (Merck Sharp & Dohme, published 2012).

Experiment [1] has as its target Recombinant human TSLP (expressed in HEK293 cells) (human) (UniProt Q969D9). In words: cell-based or functional assay.
Experiment [2] shares this target. In words: SPR, BIAcore T100, TSLP immobilised on CM5, antibody injected, bivalent analyte model, room temperature. For orientation: Surface plasmon resonance follows binding to a sensor surface in real time, without labels.
For experiment [3] the target is unchanged. In words: KinExA 3000, solution equilibrium, 25 °C, particles coated with biotinylated human TSLP. (Kinetic exclusion samples the free partner from a solution-phase mixture.)

B1: Humanized anti hu TSLP mAb 23B12 (comprising the heavy chain of SEQ ID NO:14 and the light chain of SEQ ID NO:16 of WO2008/076321) (antibody, part only; not given: light chain from another filing, part only)
heavy: QVQLVQSGAEVKKPGASVKVSCKASGYIFTDYAMHWVRQAPGQGLEWMGTFIPLLDTSDYNQNFKGRVTMTTDTSTSTAYMELRSLRSDDTAVYYCARMGVTHSYVMDAWGQGTLVTVSS[human IgG1 constant region left out here]
B1: the EC 50, inhibition of TSLP-induced proliferation of Ba/F3-TSLPR-IL7Ra cells in experiment [1] is 0.092 µg/mL. Also, the results for the Kd in experiment [2] and in experiment [3] were 0.15 nM and 0.0077 nM, respectively.

B2: Humanized anti hu TSLP mAb 23B12 (comprising the heavy chain of SEQ ID NO:14 with a mutation at position 72 from T to A, and the light chain of SEQ ID NO:16 of … (antibody, part only; not given: light chain from another filing, part only)
heavy: QVQLVQSGAEVKKPGASVKVSCKASGYIFTDYAMHWVRQAPGQGLEWMGTFIPLLDTSDYNQNFKGRVTMTADTSTSTAYMELRSLRSDDTAVYYCARMGVTHSYVMDAWGQGTLVTVSS[human IgG1 constant region left out here]
As to B2, the EC 50, inhibition of TSLP-induced proliferation of Ba/F3-TSLPR-IL7Ra cells in experiment [1] was determined as 0.054 µg/mL. Besides, the Kd in experiment [2] was determined as 0.128 nM; in experiment [3], 0.0016 nM.
